Laboratory results from PubChem BioAssay AID1508624 (National Center for Advancing Translational Sciences (NCATS), 2021).
Among all 48,000 compounds or so, about 120 (0.25%) were called active. Another 4% or so got no clear call; they are omitted. Calls come from the whole dose curve; as a rule, active = well fitted activation curve with a large enough effect; inconclusive = small, poorly fitted or top-dose-only effect, or another doubt; inactive = no such curve, though single readings can be large or run the other way. Some of the results follow.

assay: Primary qHTS for Identification of Small Molecule Activators of Huntingtin-Antisense Promoter Activity; details: HEK293 HTT-AS promoter firefly luciferase reporter (activity 0% = vehicle and -100% = no light), 24 h; series mostly up to 57.5 µM; activity change, positive = activation: at the top concentration; note: nearly all actives have a fitted effect of over 55% in size
Summary of the method: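 HEK293 Fluc reporter, 2,500 cells/well, 24 h pre-culture; cpds up to 57.5 uM final, 24 h 37 degrees C; Dual-Glo, 10 min RT; normalized vehicle = 0%, zero RLU = -100%.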

| Compound | activity change, positive = activation |
| --- | --- |
| Cc1ccc(Nc2nc3ccccc3c3nnc(C)n23)cc1Cl | inactive: -24.5% |
| COc1cc(-c2nnc(SCC(=O)Oc3ccccc3)o2)cc(OC)c1OC | inactive: -5.6% |
| COc1ccc(OC)c(Nc2ncc3c(n2)CCN(Cc2cc(OC)c(OC)c(OC)c2)C3)c1 | inactive: -11.1% |
| CCCC(CCC)C(=O)Nc1cccc(-c2nc3cccnc3s2)c1 | inactive: 4.29% |
| CCc1ccccc1NC(=O)N1CCC2(CC1)Oc1ccccc1C(=O)N2Cc1ccccc1F | inactive: -3.88% |
| COc1ccc(CCN2C(=O)N(c3ccc(F)cc3)C(=O)C2CC(=O)Nc2ccc(OC)cc2)cc1 (stereo not drawn) | inactive: -29.6% |
| CC(=O)Nc1ccc(NS(=O)(=O)c2ccc3[nH]c4c(c3c2)CCCCC4)cc1 | inactive: -33.2% |
| CCOc1ccc(C(=O)NCC(c2ccc3c(c2)OCO3)N2CCN(c3ccc(F)cc3)CC2)cc1 (stereo not drawn) | inactive: -26.6% |
| CCCCC1C(=O)N(c2ccccc2)N(c2ccccc2)C1=O | inactive: -17.3% |
| Cc1ccc(-n2nc3c(N4CCC(C(=O)NCCc5ccccc5C)CC4)nnc(C)c3c2C)cc1 | inactive: -40.2% |
| O=C(NCCCc1nc2ccccc2n1Cc1ccccc1)C1CCCCC1 | inactive: -22.1% |
| Cc1ccccc1OCc1ccc(-c2nc(C#N)c(N3CCN(c4ccccc4)CC3)o2)o1 | inactive: -16.1% |
| N#CC1(c2ccc(F)cc2)CCC(=O)CC1 | inactive: 0.619% |
| COc1cccc(Cn2c(C)c(CNCc3ccccc3Cl)c(C(=O)O)c2C)c1 | inactive: -13.9% |
| CCOc1ccc(CNC(=O)c2ccc(NC(=O)N3CCSc4ncccc43)cc2)cc1OC | inactive: -9.48% |
| CN(C)c1cc2c(cc1NC(=O)c1ccc(F)cc1)n(C)c(=O)n2C | inactive: -20.4% |
| CCc1ccc(-c2cc(C)no2)cc1S(=O)(=O)Nc1ccc(C)cn1 | inactive: -31.2% |
| Cc1cccc(-c2nnn3c2nc(NCc2ccccc2)c2ccccc23)c1 | inactive: 28.7% |
| CC(C)CCNC(=O)C1CCN(S(=O)(=O)c2cccc3nsnc23)CC1 | inactive: -9.23% |
| CNC(=O)C1CCN(Cc2cc3ccccc3n2Cc2cccc(C)c2)CC1 | inactive: -25.1% |
| CCOC(=O)c1cnc2ccc(C(=O)OC)cc2c1Nc1ccc(N2CCOCC2)cc1 | inactive: -48% |
| COC(=O)c1ccc(Cn2c(SCC(=O)NCc3ccccc3)nc3ccccc32)cc1 | inactive: -10.4% |
| CSCCC(NS(=O)(=O)c1cccs1)C(=O)Nc1ccc(C)c(Cl)c1 (stereo not drawn) | inactive: -13.8% |
| CCOc1ccc(CCNC(=O)c2ccc(CS(=O)(=O)c3ccccc3C)o2)cc1OCC | inactive: -39.7% |

| Compound | activity change, positive = activation |
| --- | --- |
| O=C(CO)[C@@H](O)[C@H](O)[C@@H](O)CO | inactive: -4.56% |
| CCc1ccccc1Nc1ncnc2c1cnn2-c1ccc(Cl)cc1 | inactive: -14.2% |
| COc1ccc(Cl)cc1NC(=O)c1ncn(-c2ccccc2)n1 | inactive: 18.5% |
| COc1ccc(OC)c(NC(=O)Cc2c(C)n(C(=O)c3ccc(Cl)cc3)c3ccc(OC)cc23)c1 | inactive: -30.2% |
| CC(=O)c1cccc(NC(=O)CN2C(=O)c3cccnc3Sc3ccccc32)c1 | inactive: 12.6% |
| CCc1ccc(NC(=O)Cn2c(=O)n(-c3ccccc3)c(=O)c3ccc(C(=O)NCc4ccc5c(c4)OCO5)cc32)cc1 | inactive: -32.3% |
| Cc1ccc(C)c(Cn2c(=O)n(Cc3ccco3)c(=O)c3oc4ccccc4c32)c1 | inactive: -10.7% |
| COc1cc(CN(C(=O)c2ccc(OC(C)C)cc2)C2CCS(=O)(=O)C2)cc(OC)c1OC (stereo not drawn) | inactive: -5.62% |
| CCN1CCOC(=O)C1CC(=O)Nc1ccc(C(C)=O)cc1 (stereo not drawn) | inactive: -11.2% |
| CCCCOC(=O)c1ccc(O)cc1 | inactive: 27.9% |
| CCOC(=O)C1CCN(S(=O)(=O)c2ccc(N3CCCCS3(=O)=O)cc2)CC1 | inactive: -8.68% |
| OCCC#Cc1nc(-c2ccc(F)cc2)c(-c2ccncc2)n1CCCc1ccccc1 | inactive: -18.8% |
| CCn1c(SCc2ccc(F)cc2Cl)nc(=O)c2c(C(=O)OC)cc(C3CC3)nc21 | inactive: -37.1% |
| CNCCCCOc1ccccc1Cc1ccccc1 | inactive: -20.3% |
| Cc1ccc(CNC(=O)c2cc(-c3ccc(C)cc3)nc3n[nH]c(-c4ccc(F)cc4)c23)cc1 | inactive: 0% |
| CC(C)C1N=C2c3ccccc3N=C(SCC(=O)NCc3ccccc3Cl)N2C1=O (stereo not drawn) | inactive: -4.17% |
| CCCn1c(=O)c2sccc2n2c(CCCC(=O)Nc3ccc(Oc4ccccc4)cc3)nnc12 | inactive: -17.2% |
| COCCCOc1cc(C[C@@H](C[C@H](N)[C@@H](O)C[C@H](C(=O)NCC(C)(C)C(N)=O)C(C)C)C(C)C)ccc1OC | inactive |
| CCc1ccc(-n2nc(CO)c(C(=O)NCC(c3ccccc3)c3ccccc3)n2)cc1 | inactive: -3.48% |
| Cc1ccc(N(Cc2cc3ccccc3[nH]c2=O)C(=O)c2cccc(Cl)c2)cc1 | inactive: -42.3% |
| CCN(CC)CCCNC(=O)CSc1nc2nc(C)c(Cc3c(F)cccc3Cl)c(C)n2n1 | inactive: -3.02% |
| COc1ccc(OCC2c3cc(OC)c(OC)cc3CCN2C(=O)COc2ccc(Cl)cc2Cl)cc1 (stereo not drawn) | inactive: -13.6% |
| CC(C)c1ccc2occ(CC(=O)Nc3ccccc3Cl)c2c1 | inactive: -13.6% |
| COc1ccc(Cn2ccc3nc(C)c(C(=O)N4CCN(c5ccccc5OC)CC4)cc3c2=O)cc1 | inactive: -23.3% |
